The record followed here is paper PMC6992704.

Chains of the proteins cited; added tags and fusions are not shown. Lines headed by an entry give the natural chain unless they say otherwise; changes in a name come on top.
UniProt Q07157: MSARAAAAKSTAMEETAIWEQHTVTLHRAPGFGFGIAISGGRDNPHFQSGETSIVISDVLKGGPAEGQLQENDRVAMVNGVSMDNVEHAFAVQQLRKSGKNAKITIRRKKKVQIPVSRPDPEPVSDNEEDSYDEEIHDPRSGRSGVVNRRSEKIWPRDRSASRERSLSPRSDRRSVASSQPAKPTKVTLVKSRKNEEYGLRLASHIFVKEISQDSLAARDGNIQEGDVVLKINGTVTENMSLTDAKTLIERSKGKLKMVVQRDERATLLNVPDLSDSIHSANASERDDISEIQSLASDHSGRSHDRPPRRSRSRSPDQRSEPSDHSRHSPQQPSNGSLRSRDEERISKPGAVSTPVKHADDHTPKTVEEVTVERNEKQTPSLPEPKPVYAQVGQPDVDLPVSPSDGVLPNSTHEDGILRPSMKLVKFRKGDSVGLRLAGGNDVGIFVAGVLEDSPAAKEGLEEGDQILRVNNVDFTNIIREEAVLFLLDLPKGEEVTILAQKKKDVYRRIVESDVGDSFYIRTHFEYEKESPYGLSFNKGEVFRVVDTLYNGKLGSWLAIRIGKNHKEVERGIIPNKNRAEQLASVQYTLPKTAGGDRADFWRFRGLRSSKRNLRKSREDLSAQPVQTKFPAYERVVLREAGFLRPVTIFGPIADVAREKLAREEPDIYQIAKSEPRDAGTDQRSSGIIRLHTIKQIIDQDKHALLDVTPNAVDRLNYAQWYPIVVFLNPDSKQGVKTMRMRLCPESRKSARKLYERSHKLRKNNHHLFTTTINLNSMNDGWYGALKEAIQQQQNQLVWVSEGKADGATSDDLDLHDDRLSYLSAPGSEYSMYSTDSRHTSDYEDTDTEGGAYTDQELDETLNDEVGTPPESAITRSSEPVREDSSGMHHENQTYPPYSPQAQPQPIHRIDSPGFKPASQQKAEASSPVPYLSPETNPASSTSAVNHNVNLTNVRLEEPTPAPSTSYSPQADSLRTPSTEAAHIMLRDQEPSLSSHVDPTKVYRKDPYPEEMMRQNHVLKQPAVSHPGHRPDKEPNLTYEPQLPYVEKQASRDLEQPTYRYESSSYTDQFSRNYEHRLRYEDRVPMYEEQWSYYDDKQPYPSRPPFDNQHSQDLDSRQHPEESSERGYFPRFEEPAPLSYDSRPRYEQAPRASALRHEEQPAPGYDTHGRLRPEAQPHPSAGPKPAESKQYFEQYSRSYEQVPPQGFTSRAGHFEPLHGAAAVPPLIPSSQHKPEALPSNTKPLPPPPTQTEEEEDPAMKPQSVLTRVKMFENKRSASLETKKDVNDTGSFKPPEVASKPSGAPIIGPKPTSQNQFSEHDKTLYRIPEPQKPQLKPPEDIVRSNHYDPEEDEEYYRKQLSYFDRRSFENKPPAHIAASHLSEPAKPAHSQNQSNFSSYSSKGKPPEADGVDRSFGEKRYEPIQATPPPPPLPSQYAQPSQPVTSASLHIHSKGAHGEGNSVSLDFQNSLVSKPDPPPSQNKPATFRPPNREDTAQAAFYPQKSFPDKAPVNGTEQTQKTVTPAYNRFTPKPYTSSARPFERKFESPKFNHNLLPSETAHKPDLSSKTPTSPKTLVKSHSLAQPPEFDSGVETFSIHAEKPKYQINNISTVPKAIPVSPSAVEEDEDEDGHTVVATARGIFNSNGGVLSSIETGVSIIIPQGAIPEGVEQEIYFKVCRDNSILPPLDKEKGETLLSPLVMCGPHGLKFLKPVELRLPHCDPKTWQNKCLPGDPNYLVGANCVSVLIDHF
UniProt P39447: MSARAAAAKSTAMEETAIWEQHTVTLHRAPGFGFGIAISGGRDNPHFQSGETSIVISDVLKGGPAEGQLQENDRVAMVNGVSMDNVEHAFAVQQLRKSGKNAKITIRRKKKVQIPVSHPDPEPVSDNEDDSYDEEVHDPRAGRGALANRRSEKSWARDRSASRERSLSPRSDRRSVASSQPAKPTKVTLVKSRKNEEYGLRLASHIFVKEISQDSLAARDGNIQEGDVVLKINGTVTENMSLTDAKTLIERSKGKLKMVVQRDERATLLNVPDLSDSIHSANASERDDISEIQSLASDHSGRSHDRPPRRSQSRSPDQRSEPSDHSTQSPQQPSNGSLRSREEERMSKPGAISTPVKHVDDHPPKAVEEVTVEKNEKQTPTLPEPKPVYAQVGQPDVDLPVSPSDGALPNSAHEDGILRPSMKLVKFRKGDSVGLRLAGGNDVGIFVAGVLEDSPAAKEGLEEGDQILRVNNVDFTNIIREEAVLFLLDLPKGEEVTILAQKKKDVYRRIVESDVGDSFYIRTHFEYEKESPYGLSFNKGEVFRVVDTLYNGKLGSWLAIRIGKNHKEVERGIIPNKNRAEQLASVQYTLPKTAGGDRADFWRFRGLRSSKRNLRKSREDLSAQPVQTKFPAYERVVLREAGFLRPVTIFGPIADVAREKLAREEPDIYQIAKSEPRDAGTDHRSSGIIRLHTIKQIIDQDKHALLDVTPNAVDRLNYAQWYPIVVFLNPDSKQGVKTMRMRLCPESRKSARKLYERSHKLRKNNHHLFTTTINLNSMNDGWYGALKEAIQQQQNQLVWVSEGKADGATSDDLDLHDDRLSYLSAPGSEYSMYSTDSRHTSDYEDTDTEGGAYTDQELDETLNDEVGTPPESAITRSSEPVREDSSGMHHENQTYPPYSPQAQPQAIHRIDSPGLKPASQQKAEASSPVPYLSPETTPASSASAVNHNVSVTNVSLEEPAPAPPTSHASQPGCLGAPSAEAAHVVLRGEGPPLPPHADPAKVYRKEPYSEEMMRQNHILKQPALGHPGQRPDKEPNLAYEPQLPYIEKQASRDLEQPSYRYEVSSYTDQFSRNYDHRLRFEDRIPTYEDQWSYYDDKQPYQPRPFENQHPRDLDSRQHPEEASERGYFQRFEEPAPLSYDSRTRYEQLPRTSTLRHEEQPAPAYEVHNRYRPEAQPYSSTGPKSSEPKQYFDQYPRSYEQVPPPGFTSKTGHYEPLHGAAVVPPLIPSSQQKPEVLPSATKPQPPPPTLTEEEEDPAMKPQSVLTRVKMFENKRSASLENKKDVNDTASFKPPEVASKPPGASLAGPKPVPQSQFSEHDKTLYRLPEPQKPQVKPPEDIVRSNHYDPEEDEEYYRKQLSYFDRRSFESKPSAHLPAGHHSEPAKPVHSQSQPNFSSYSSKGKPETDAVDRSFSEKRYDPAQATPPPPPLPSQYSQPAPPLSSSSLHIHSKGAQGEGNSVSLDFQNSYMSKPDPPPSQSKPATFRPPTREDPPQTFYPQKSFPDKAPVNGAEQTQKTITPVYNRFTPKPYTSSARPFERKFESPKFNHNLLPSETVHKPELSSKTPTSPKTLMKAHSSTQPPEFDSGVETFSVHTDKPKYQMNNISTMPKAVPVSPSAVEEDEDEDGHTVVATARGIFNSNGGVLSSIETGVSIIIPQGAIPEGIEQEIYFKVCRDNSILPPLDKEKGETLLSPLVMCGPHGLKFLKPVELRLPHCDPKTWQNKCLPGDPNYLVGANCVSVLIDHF
UniProt O00327: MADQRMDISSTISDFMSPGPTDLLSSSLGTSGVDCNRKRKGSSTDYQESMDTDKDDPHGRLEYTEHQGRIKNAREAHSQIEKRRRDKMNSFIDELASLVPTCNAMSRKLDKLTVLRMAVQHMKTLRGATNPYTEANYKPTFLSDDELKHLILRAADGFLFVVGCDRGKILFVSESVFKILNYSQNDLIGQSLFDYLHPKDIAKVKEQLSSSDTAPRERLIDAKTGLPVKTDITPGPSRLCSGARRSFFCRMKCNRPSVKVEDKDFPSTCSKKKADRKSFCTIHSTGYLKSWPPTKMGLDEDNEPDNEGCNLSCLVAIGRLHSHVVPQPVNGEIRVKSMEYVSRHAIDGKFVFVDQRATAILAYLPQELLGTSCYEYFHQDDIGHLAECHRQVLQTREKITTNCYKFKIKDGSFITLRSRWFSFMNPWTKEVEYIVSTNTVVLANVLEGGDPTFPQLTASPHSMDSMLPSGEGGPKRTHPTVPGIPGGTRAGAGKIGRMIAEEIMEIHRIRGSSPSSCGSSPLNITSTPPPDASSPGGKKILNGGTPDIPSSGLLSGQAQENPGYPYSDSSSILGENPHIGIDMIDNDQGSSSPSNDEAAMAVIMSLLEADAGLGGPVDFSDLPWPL
UniProt O35973: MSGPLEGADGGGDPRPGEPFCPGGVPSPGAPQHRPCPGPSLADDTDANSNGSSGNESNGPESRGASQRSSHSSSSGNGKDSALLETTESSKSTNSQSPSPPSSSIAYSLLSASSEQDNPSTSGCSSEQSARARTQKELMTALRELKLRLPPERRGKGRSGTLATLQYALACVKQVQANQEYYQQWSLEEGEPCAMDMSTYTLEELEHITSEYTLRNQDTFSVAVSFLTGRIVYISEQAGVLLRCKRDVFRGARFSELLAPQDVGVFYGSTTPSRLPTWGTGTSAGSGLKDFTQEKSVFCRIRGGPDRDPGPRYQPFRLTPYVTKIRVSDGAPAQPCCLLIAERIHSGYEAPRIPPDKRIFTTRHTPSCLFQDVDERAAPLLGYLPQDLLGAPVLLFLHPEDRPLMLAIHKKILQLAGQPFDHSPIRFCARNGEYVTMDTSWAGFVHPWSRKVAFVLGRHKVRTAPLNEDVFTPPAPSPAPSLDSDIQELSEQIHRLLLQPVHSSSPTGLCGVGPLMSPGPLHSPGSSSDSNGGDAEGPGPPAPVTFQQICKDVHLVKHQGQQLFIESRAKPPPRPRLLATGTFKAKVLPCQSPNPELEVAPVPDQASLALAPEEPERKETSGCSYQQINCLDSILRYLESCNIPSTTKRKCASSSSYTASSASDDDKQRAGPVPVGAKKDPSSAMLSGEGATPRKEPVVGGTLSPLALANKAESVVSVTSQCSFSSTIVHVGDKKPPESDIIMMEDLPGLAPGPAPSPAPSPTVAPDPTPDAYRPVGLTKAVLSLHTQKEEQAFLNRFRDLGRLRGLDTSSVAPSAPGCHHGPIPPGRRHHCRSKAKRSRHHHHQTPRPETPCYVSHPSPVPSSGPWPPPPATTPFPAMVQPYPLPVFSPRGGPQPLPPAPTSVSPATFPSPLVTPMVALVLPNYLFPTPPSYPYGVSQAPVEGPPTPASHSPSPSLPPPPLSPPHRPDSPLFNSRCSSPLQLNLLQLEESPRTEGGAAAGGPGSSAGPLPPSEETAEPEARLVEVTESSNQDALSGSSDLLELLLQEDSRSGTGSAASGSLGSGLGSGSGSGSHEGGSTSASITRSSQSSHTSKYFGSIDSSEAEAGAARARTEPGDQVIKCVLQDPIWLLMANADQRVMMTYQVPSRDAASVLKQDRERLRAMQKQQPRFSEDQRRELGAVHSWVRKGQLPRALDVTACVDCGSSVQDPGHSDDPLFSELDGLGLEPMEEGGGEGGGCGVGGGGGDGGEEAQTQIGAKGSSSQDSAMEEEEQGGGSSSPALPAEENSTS

Results are given in words; binding and its absence hold for the method and conditions named. For some of these results: In cells and extracts the contact can be indirect. Some results given as binding are weak or reduced against the parent protein; the word gives no strength.

The target in experiment [1] is HA-tagged TJP1 (pcDNA3 with HA tag) (human) (UniProt Q07157). The experiment can be described thus: co-IP; TJP1-overexpressing cells in lysis buffer (150 mM NaCl, 50 mM HEPES pH 7.4, 1% Triton X-100); HA-tagged TJP1 immunoprecipitated with HA-beads; washed at least four times; cell type not stated.
The target in experiment [2] is mCherry-tagged TJP1 (human) (UniProt Q07157). Description: co-IP; mouse primary hepatocytes expressing FLAG-PER1 and mCherry-tagged TJP1 or mutants, in the presence or absence of amino acids; mCherry-tagged TJP1 immunoprecipitated by anti-mCherry antibody.
Experiment [3] concerns the target mCherry-tagged TJP1 6D (T589D/T709D/S927D/S1360D/S1460D/S1617D mutant of human TJP1) (human) (UniProt Q07157). The description is as above.
For experiment [4], the target named is mCherry-tagged TJP1 6A (T589A/T709A/S927A/S1360A/S1460A/S1617A mutant of human TJP1) (human) (UniProt Q07157). The description is as above.
Experiment [5] has as its target His-HA-tagged TJP1, purified (human) (UniProt Q07157). Description: co-IP; in vitro co-IP; purified fusion proteins; both purified.
In experiment [6] the target is endogenous TJP1 (tight junction protein 1) (mouse (endogenous in primary hepatocytes and liver)) (UniProt P39447). The experiment can be described thus: co-IP; endogenous proteins of mouse primary hepatocytes in a collagen sandwich; TJP1 immunoprecipitated with anti-TJP1 antibody and Protein A/G Plus Agarose, rabbit IgG as negative control; cells treated with amino acids and/or 250 nM Torin1.

The target is the same in experiment [7]. Description: co-IP; endogenous proteins of mouse liver extracts harvested at ZT6 and ZT18; TJP1 immunoprecipitated with anti-TJP1 antibody and Protein A/G Plus Agarose, rabbit IgG as negative control.

Take “BMAL1 (brain and muscle ARNT-like 1) (from UniProt O00327 1-626)”: the binding result in experiment [1] is given as “no binding”.

Regarding “FLAG-PER1 (1-1147) (from UniProt O35973 1-1147) (domain or fragment)”, in experiment [1], the binding result is “binds”.

Turning to “FLAG-PER1 (wildtype PER1), co-IP of Supplementary Fig. 2b (from UniProt O35973 1-1291)”, in experiment [1], the binding entry was “binds”.

With “FLAG-PER1 in mouse primary hepatocytes (from UniProt O35973 1-1291)”, the figures for the binding entry in experiment [2], in experiment [3] and in experiment [4] were “binds”, “no binding” and “binds”, respectively.

With “His-PER1 fusion protein, purified (from UniProt O35973 1-1291)”, in experiment [5], the binding result was “binds”.

In the case of “endogenous PER1 (period circadian regulator 1) (from UniProt O35973 1-1291)”, the binding entry in experiment [6] and in experiment [7] was “binds” each time.

B1: CLOCK (circadian locomotor output cycles kaput) (protein, UniProt O15516 1-846)
chain: MLFTVSCSKMSSIVDRDDSSIFDGLVEEDDKDKAKRVSRNKSEKKRRDQFNVLIKELGSMLPGNARKMDKSTVLQKSIDFLRKHKEITAQSDASEIRQDWKPTFLSNEEFTQLMLEALDGFFLAIMTDGSIIYVSESVTSLLEHLPSDLVDQSIFNFIPEGEHSEVYKILSTHLLESDSLTPEYLKSKNQLEFCCHMLRGTIDPKEPSTYEYVKFIGNFKSLNSVSSSAHNGFEGTIQRTHRPSYEDRVCFVATVRLATPQFIKEMCTVEEPNEEFTSRHSLEWKFLFLDHRAPPIIGYLPFEVLGTSGYDYYHVDDLENLAKCHEHLMQYGKGKSCYYRFLTKGQQWIWLQTHYYITYHQWNSRPEFIVCTHTVVSYAEVRAERRRELGIEESLPETAADKSQDSGSDNRINTVSLKEALERFDHSPTPSASSRSSRKSSHTAVSDPSSTPTKIPTDTSTPPRQHLPAHEKMVQRRSSFSSQSINSQSVGSSLTQPVMSQATNLPIPQGMSQFQFSAQLGAMQHLKDQLEQRTRMIEANIHRQQEELRKIQEQLQMVHGQGLQMFLQQSNPGLNFGSVQLSSGNSSNIQQLAPINMQGQVVPTNQIQSGMNTGHIGTTQHMIQQQTLQSTSTQSQQNVLSGHSQQTSLPSQTQSTLTAPLYNTMVISQPAAGSMVQIPSSMPQNSTQSAAVTTFTQDRQIRFSQGQQLVTKLVTAPVACGAVMVPSTMLMGQVVTAYPTFATQQQQSQTLSVTQQQQQQSSQEQQLTSVQQPSQAQLTQPPQQFLQTSRLLHGNPSTQLILSAAFPLQQSTFPQSHHQQHQSQQQQQLSRHRTDSLPDPSKVQPQ
Take B1: the binding entry in experiment [1] is “no binding”.
